Measurements from patent US20030022847A1, “Method for inhibiting apoptosis under ischemic condition” (priority 2000, published 2003).

Tested on: HepG2 cells
Assay: HepG2 cell viability under low oxygen (hypoxic) condition, trypan blue exclusion assay
Format: cell-based, human
Settings: for Enhancement effect on cell viability under hypoxic condition (in words) / Effective concentration exerting enhancement effects on HepG2 cell viability: 1% (v/v) oxygen, procedure of Examples 4-1 and 4-2

Row | Compound | Enhancement effect on cell viability under hypoxic condition (in words) | Geneticin concentration at which cells were viable for a certain period of time [µg/mL] | Effective concentration exerting enhancement effects on HepG2 cell viability [µg/mL]
1 | O=c1[nH]cc(F)c(=O)[nH]1 [5-fluorouracil] | did not show any effect on cell viability | – | –
2 | CC1(C)S[C@@H]2[C@H](NC(=O)[C@H](N)c3ccc(O)cc3)C(=O)N2[C@H]1C(=O)O [amoxillin, amoxicillin] | did not show enhancement effect on cell viability | – | –
3 | CC1(C)S[C@@H]2[C@H](NC(=O)[C@H](N)c3ccccc3)C(=O)N2[C@H]1C(=O)O [ampicillin] | did not show enhancement effect on cell viability | – | –
4 | O=C(N[C@H](CO)[C@H](O)c1ccc([N+](=O)[O-])cc1)C(Cl)Cl [chloramphenicol] | effective | – | –
5 | O=C(O)c1cn(C2CC2)c2cc(N3CCNCC3)c(F)cc2c1=O [ciprofloxacin] | effective | – | –
6 | C[C@@H]1C[C@@H]([C@H](O)CC2CC(=O)NC(=O)C2)C(=O)[C@@H](C)C1 [cyclohexamide] | did not show any effect on cell viability | – | –
7 | CC[C@H]1OC(=O)[C@H](C)[C@@H](O[C@H]2C[C@@](C)(OC)[C@@H](O)[C@H](C)O2)[C@H](C)[C@@H](O[C@@H]2O[C@H](C)C[C@H](N(C)C)[C@H]2O)[C@](C)(O)C[C@@H](C)C(=O)[C@H](C)[C@@H](O)[C@]1(C)O [erythromycin] | not effective | – | –
8 | CN[C@@H]1[C@@H](O)[C@@H](O[C@@H]2[C@@H](O)[C@H](O[C@H]3O[C@H]([C@@H](C)O)[C@@H](O)[C@H](O)[C@H]3N)[C@@H](N)C[C@H]2N)OC[C@]1(C)O [geneticin] | – | 10 to 100 | –
9 | COc1ccc(C[C@H](N)C(=O)N[C@H]2[C@@H](O)[C@H](n3cnc4c(N(C)C)ncnc43)O[C@@H]2CO)cc1 [puromycin] | did not show any effect on cell viability | – | –
10 | Nc1ccc(S(=O)(=O)Nc2ncccn2)cc1 [sulfadiazine] | did not show any effect on cell viability | – | –
11 | COc1ccc(CN2CCNCC2)c(OC)c1OC [trimetazidine] | did not show any positive result | – | –
12 | gentamicin | effective | – | 100 to 1000
13 | neomycin | effective | – | 1000
